In paper PMC6919601, “Identification of Plasmodium dipeptidyl aminopeptidase allosteric inhibitors by high throughput screening” (PLoS ONE, 2019):
“And” between values parts separate entries of the source, which are not always exact repeats. Equal values may be shown once. Among all 110,000 compounds or so, about 230 (0.21%) showed an effect of 50% or more. This is one part of the list.

Target: DPAP1 (Plasmodium falciparum, UniProt Q8IIJ9)
Assay: primary screen, percent inhibition; read by cleavage of a fluorogenic dipeptide substrate; higher = more effect of the substance
Set-up: species or system P. falciparum D10 trophozoite lysates; single well
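Also: 30 min substrate incubation versus DMSO and 10 µM JCP410 controls.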

Sequence of DPAP1 (Q8IIJ9 whole entry, looked up): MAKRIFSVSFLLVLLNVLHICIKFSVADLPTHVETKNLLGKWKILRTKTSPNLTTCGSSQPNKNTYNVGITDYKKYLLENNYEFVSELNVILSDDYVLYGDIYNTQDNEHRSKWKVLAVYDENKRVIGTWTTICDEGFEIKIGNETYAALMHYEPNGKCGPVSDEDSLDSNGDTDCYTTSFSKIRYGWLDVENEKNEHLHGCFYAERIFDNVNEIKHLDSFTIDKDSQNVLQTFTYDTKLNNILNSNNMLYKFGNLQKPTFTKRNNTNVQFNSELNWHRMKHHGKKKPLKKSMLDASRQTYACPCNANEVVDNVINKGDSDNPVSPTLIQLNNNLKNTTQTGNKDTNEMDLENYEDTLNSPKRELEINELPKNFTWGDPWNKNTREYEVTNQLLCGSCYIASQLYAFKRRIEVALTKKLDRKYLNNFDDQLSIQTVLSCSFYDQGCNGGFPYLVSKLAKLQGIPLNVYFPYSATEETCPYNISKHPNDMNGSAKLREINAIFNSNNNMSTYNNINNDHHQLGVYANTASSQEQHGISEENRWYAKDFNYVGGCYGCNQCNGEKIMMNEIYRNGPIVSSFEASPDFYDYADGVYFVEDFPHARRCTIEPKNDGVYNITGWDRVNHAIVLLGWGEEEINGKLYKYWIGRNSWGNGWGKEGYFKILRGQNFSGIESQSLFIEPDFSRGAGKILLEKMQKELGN

SMILES	% Inhibition @ 10 uM
CC(=O)c1sc(N2C(=O)C(O)=C(C(=O)c3cc4ccccc4o3)C2c2ccc(O)cc2)nc1C (stereo not drawn)	1.64%
COc1ccc(-n2nnnc2C2CCN(S(=O)(=O)Cc3ccccc3)CC2)cc1	-9.21%
CC1=C(C(=O)Nc2cccc(C)n2)C(c2ccsc2)C2=C(O)CC(C)(C)CC2=N1 (stereo not drawn)	3.86%
Cc1ccc(OCC(=O)Nc2ccc(Cl)c(C(F)(F)F)c2)c(Br)c1	2.65%
CCOC(=O)N1CCC(NC(=O)Cn2ncc3c4ccccc4n(Cc4ccccc4)c3c2=O)CC1	0.137%
O=C(COc1ccccc1)N1CCN(C(c2ccccc2)c2ccccc2)CC1	-9.4%
CC(C)c1ccc(OCC(=O)N(Cc2nc(-c3ccc(Cl)cc3)no2)C(C)C)cc1	3.88%
Cc1ccccc1OCc1nnc(SCc2ccc(C#N)cc2Cl)n1C	4.42%
COc1ccc(CCNC(=O)CN2CCN(Cc3ccc4c(c3)OCO4)CC2)cc1OC	3.68%
O=C1NC(=O)/C(=C\c2cccc(O)c2)S1	2.03% and 1.29%
Sc1nncn1-c1ccccn1	-5.26%
CN1C(=O)S/C(=C\c2cc(Cl)c(O)c(Br)c2)C1=O	0.484%
Cc1nc2c(c(C)c1CCC(=O)N1CCN(Cc3ccccc3)CC1)c(=O)n(C)c(=O)n2C	5.32%
O=C(c1ccc2ccccc2c1)N1CCc2[nH]c3ccccc3c2C1	7.06%
COc1ccc(N(CC(=O)Nc2ccccc2C)S(=O)(=O)c2ccc(NC(C)=O)cc2)cc1	1.87%
Cc1ccc(C(C)NC(=O)Nc2cccc(C)c2)cc1 (stereo not drawn)	5.44%
N#CC1=C(N)N(c2ccc(Cl)cc2)C2=C(C(=O)CCC2)C1c1cccs1 (stereo not drawn)	0.76%
c1coc(CNc2nc[n+]3c4c2ncn4CC3)c1	-5.2%
Oc1nc(SCc2ccc(F)cc2)nc2c1nnn2Cc1ccccc1	-3.75%
CCOC(=O)c1cc(-c2ccccc2C)no1	6.51%
O=C(NCc1ccc(Cl)cc1)c1cccc2c1C(=O)N(CC1CCCO1)C2 (stereo not drawn)	-2.83%
CCCCSC1=C(C#N)C(=O)NC(c2ccco2)S1 (stereo not drawn)	6.46%
CCOC(=O)c1c(NC(=O)CN2CCCCC2)sc2c1CCCC2	1.29%
CCOc1ccc(NC2=CC(=O)c3ccccc3C2=O)cc1	3.34%
CC1CN(C(=O)C2CC2)C(C)CN1C(=O)C1CC1 (stereo not drawn)	-3.13%
CC1CCCC(C)N1CC(O)COc1ccc([N+](=O)[O-])cc1 (stereo not drawn)	-3.16%
CC(C)c1ccc(OCC(=O)Nc2ccc(CN3CCOCC3)cc2)cc1	4.03%
